Consider 153 variants from a collection of fitness landscapes (doi:10.1016/j.celrep.2020.107928).

The labels stand for the following.
B1: Caulobacter ParB omega fusion; a variant is named by its letters at X, in order, B8GW30 (parent)
chain: MESVVVGEPGMSEGRRGLGRGLSALLGEVDAAPAQAPGEQLGGSREAPIEILQRNPDQPRRTFREEDLEDLSNSIREKGVLQPILVRPSPDTAGEYQIVAGERAWRAAQRAGLKTVPIMVRELDDLAVLEIGIIENVQRADLNVLEEALSYKVLMEKFERTQENIAQTIGKSXSHVANXMRLLXLPDEVQSYLVSGELTAXHARAIAAAADPVALAKQIIEGGLSVRETEALARKAPNLSAGKSKGGRPPRVKDTDTQALESDLSSVLGLDVSIDHRGSTGTLTITYATLEQLDDLCNRLTRGI

Over roughly 81,000 sequences, “one-hybrid fitness for binding NBS DNA” has its median near -0.1; the highest 2% begin near 0.36. The list shows a part of the results.

In this experiment the parent is B1. As to the kind of experiment: one-hybrid fitness for binding NBS DNA (the Noc-binding site; scaled: cognate 1, non-cognate 0); higher = stronger binding. As to conditions: with NBS DNA site. The gist of the method: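 Fitness is the rescaled log change in variant-to-wild-type read ratio, measured by Illumina sequencing of plasmids before and after bacterial one-hybrid selection. The scale puts cognate at 1 and non-cognate at 0. Selection of Caulobacter ParB libraries, four specificity codons randomised, took place in E. coli USO with a HIS3 reporter, site 19 bp from the promoter, over 48 hours at 37°C on M9-minus-histidine with 0.1 mM IPTG and 5 mM 3-AT.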
On to AHNE, for which the “one-hybrid fitness for binding NBS DNA” value is no more than 0.2.
Under PFTS stands no more than 0.2; under TSDE, no more than 0.2.
Take TFEE: the “one-hybrid fitness for binding NBS DNA” value is no more than 0.2.
Regarding SQKA, the “one-hybrid fitness for binding NBS DNA” value was no more than 0.2.
Under PKME stands no more than 0.2; under DKDK, no more than 0.2.
Under HLSA stands no more than 0.2; under TCQL, no more than 0.2; under GFNG, no more than 0.2.
Regarding TADR, the “one-hybrid fitness for binding NBS DNA” value was no more than 0.2.
Under STDK stands no more than 0.2.
Next, KYCC: no more than 0.2.
As to YDGC, the “one-hybrid fitness for binding NBS DNA” value is no more than 0.2.
Next, DDKR: no more than 0.2; YDNC: no more than 0.2.
Next, AASD: no more than 0.2; LFRC: no more than 0.2.
Under PKPI stands no more than 0.2.
For HPYG, the “one-hybrid fitness for binding NBS DNA” value was no more than 0.2.
Under TDMR stands no more than 0.2; under QNQS, no more than 0.2; under VWVK, no more than 0.2.
Under DRYW stands no more than 0.2; under WPAC, no more than 0.2; under LRHQ, no more than 0.2.
Regarding VRNG, the “one-hybrid fitness for binding NBS DNA” value is no more than 0.2.
Regarding ACGG, the “one-hybrid fitness for binding NBS DNA” value is no more than 0.2.
Next, RNHM: no more than 0.2; VNLT: no more than 0.2.
Under RCQG stands no more than 0.2; under WCPS, no more than 0.2; under YLES, no more than 0.2.
Next, PLPC: no more than 0.2; MDPL: no more than 0.2.
On to NMTG, for which the “one-hybrid fitness for binding NBS DNA” value is no more than 0.2.
Under LRTC stands no more than 0.2; under NPND, no more than 0.2; under QGNA, no more than 0.2.
Next, QFAT: no more than 0.2; QNQM: no more than 0.2.
For ASYR, the “one-hybrid fitness for binding NBS DNA” value is no more than 0.2.
Next, RMFY: no more than 0.2; IGAF: no more than 0.2; HGIS: no more than 0.2.
Next, VILC: no more than 0.2; ANCG: no more than 0.2; QHKW: 0.238.
As to ASYV, the “one-hybrid fitness for binding NBS DNA” value was no more than 0.2.
Next, LNYL: no more than 0.2; EPIC: no more than 0.2; RSLR: 0.339.
Next, PAFC: no more than 0.2; QTYK: no more than 0.2.
Next, VGKS: no more than 0.2; AYFC: no more than 0.2.
As for HRND, the “one-hybrid fitness for binding NBS DNA” value is no more than 0.2.
Under KVKY stands no more than 0.2.
For SHRA, the “one-hybrid fitness for binding NBS DNA” value is no more than 0.2.
Consider MDRC, for which the “one-hybrid fitness for binding NBS DNA” value is no more than 0.2.
In the case of SSHD, the “one-hybrid fitness for binding NBS DNA” value was no more than 0.2.
Next, PPHY: no more than 0.2; PQSK: no more than 0.2; PYMC: no more than 0.2.
Turning to FPNR, the “one-hybrid fitness for binding NBS DNA” value was no more than 0.2.
As for GQHR, the “one-hybrid fitness for binding NBS DNA” value is no more than 0.2.
Under SGID stands no more than 0.2; under NPIP, no more than 0.2; under RCVS, 0.335.
Turning to GHRG, the “one-hybrid fitness for binding NBS DNA” value was no more than 0.2.
Turning to STTY, the “one-hybrid fitness for binding NBS DNA” value was no more than 0.2.
Under GAPN stands no more than 0.2; under MQAL, no more than 0.2; under QRPY, no more than 0.2.
Turning to TTWM, the “one-hybrid fitness for binding NBS DNA” value is no more than 0.2.
In the case of TYTA, the “one-hybrid fitness for binding NBS DNA” value was no more than 0.2.
Under TINC stands no more than 0.2; under GEDA, no more than 0.2; under TSLE, no more than 0.2.
As for VMFC, the “one-hybrid fitness for binding NBS DNA” value was no more than 0.2.
Under NMMC stands no more than 0.2.
Next, TAAD: no more than 0.2; GFPT: no more than 0.2; RPAD: no more than 0.2.
Under TTEK stands no more than 0.2; under CGGG, no more than 0.2; under AYRY, no more than 0.2.
Regarding RLIP, the “one-hybrid fitness for binding NBS DNA” value was no more than 0.2.
Under TKEG stands no more than 0.2; under CKAI, no more than 0.2.
As for WYGN, the “one-hybrid fitness for binding NBS DNA” value was no more than 0.2.
Under PIRQ stands no more than 0.2; under QLVC, no more than 0.2; under RSAQ, no more than 0.2.
As to GTLN, the “one-hybrid fitness for binding NBS DNA” value is no more than 0.2.
For the variant RAIR, the “one-hybrid fitness for binding NBS DNA” value was determined as 0.207.
Regarding IFVE, the “one-hybrid fitness for binding NBS DNA” value was no more than 0.2.
Next, HLDI: no more than 0.2.
For the variant SVDF, the “one-hybrid fitness for binding NBS DNA” value was no more than 0.2.
EKYS: the “one-hybrid fitness for binding NBS DNA” value was no more than 0.2.
Take YLTC: the “one-hybrid fitness for binding NBS DNA” value was no more than 0.2.
Under QIDV stands no more than 0.2; under WGTR, no more than 0.2; under SFTW, no more than 0.2.
LNFR: the “one-hybrid fitness for binding NBS DNA” value was no more than 0.2.
Next, MARI: no more than 0.2; MTGN: no more than 0.2; PYIS: no more than 0.2.
Take GMLS: the “one-hybrid fitness for binding NBS DNA” value was no more than 0.2.
Regarding LDLL, the “one-hybrid fitness for binding NBS DNA” value is no more than 0.2.
In the case of WKPK, the “one-hybrid fitness for binding NBS DNA” value is no more than 0.2.
As to PLHW, the “one-hybrid fitness for binding NBS DNA” value is no more than 0.2.
Consider WYPV, for which the “one-hybrid fitness for binding NBS DNA” value was no more than 0.2.
For the variant QVTI, the “one-hybrid fitness for binding NBS DNA” value was no more than 0.2.
As to VSMI, the “one-hybrid fitness for binding NBS DNA” value was no more than 0.2.
As to DNFC, the “one-hybrid fitness for binding NBS DNA” value was no more than 0.2.
Consider HDEG, for which the “one-hybrid fitness for binding NBS DNA” value was no more than 0.2.
Under GAYA stands no more than 0.2; under SETC, no more than 0.2; under HHKQ, no more than 0.2.
Under YYLW stands no more than 0.2.
Next, GPHK: no more than 0.2; SYTT: no more than 0.2.
For NNLC, the “one-hybrid fitness for binding NBS DNA” value is no more than 0.2.
With YYNV, the “one-hybrid fitness for binding NBS DNA” value is no more than 0.2.
For VLNA, the “one-hybrid fitness for binding NBS DNA” value is no more than 0.2.
Next, WGNL: no more than 0.2.
For WHQW, the “one-hybrid fitness for binding NBS DNA” value was no more than 0.2.
Under RCTT stands 0.518; under CDNS, no more than 0.2.
PMCY: the “one-hybrid fitness for binding NBS DNA” value is no more than 0.2.
Under LEGK stands no more than 0.2.
Under HKKC stands no more than 0.2; under SKHD, no more than 0.2.
Under TLWL stands no more than 0.2; under SFTS, no more than 0.2; under PEYD, no more than 0.2.
Consider MHMM, for which the “one-hybrid fitness for binding NBS DNA” value was no more than 0.2.
In the case of SDGG, the “one-hybrid fitness for binding NBS DNA” value is no more than 0.2.
Next, KMHC: no more than 0.2; VRPY: no more than 0.2.
Under PKFS stands no more than 0.2; under KNGS, no more than 0.2; under YDSS, no more than 0.2.
For RWMI, the “one-hybrid fitness for binding NBS DNA” value is no more than 0.2.
PQTT: the “one-hybrid fitness for binding NBS DNA” value is no more than 0.2.
For HGNS, the “one-hybrid fitness for binding NBS DNA” value was no more than 0.2.
Next, LIVV: no more than 0.2; NMQG: no more than 0.2; RWKA: no more than 0.2.
In the case of CCRN, the “one-hybrid fitness for binding NBS DNA” value is no more than 0.2.
Regarding VVKC, the “one-hybrid fitness for binding NBS DNA” value was no more than 0.2.
Regarding ETGS, the “one-hybrid fitness for binding NBS DNA” value is no more than 0.2.
